Consider 167 variants from the RNAGym collection of RNA variant scans (doi:10.7554/elife.90254).

B1: LINE1-mini (parent)
chain: GGCAGAGCUCAACACAGCGUGGCAAAGUGGCUGUGGCUAGACUGCC

Read counts are not given, so values of variants with three or more changes are uncertain.

Variants of B1 are the subject of the series. Put plainly: self-cleavage, relative activity (ratio to wild type); higher = more cleavage; in vitro, sequencing; the parent is a self-cleaving ribozyme.
Regarding A4G U20C U32G, the self-cleavage turned out to be 0.1.

Consider A4G U28C G29U G40A, for which the self-cleavage amounted to 0.18.

Regarding A4U A6U C18A, the self-cleavage was found to be 0.04.

In the case of A4G C15A C18U G29C C37A G40C C46G, the self-cleavage came to 0.08.

With A4G G19A U34C, the self-cleavage amounted to 0.2.

Regarding A4G G21U C31A, the self-cleavage was found to be 0.25.

Regarding A4G G21U C31G, the self-cleavage amounted to 0.18.

Turning to A4G G29U G40C, the self-cleavage amounted to 0.11.

A4U A24U A26U: the self-cleavage was found to be 0.58.

A4G U9G A24G: the self-cleavage was determined as 0.03.

For A4U A14U G22A A26C G27A, the self-cleavage was 0.02.

Consider A4G G7A A26C C31A G44U, for which the self-cleavage turned out to be 0.19.

Consider A4U A12G C46A, for which the self-cleavage is 0.01.

For A4G U9G C31A U32G G40C, the self-cleavage was determined as 0.12.

Regarding A4G U20C G30A A39G, the self-cleavage is 0.03.

Regarding A4G G7C A14U G27A, the self-cleavage is 0.1.

As for A4G G5C C42A, the self-cleavage was 0.04.

Take A4G G5C A41C: the self-cleavage was 0.04.

In the case of A4U A11G G21A A25G G29U U43A, the self-cleavage was determined as 0.01.

On to A4U A24C G35U, for which the self-cleavage is 0.01.

On to A4G U9C U20A G21A C42G, for which the self-cleavage was 0.01.

In the case of A4G G27A U28A C45A, the self-cleavage was determined as 0.11.

A4G G17U G29U U34C: the self-cleavage came to 0.

Turning to A4G G7U U9C G19U G22A, the self-cleavage worked out at 0.02.

Consider A4G G7U A16C G44A, for which the self-cleavage came to 0.04.

Take A4U A25G G35A: the self-cleavage came to 0.01.

With A4G G36A U43C G44A, the self-cleavage was found to be 0.09.

Take A4G U32C G40U: the self-cleavage was determined as 0.

In the case of A4G U9C A12C G22A G33A, the self-cleavage is 0.

As for A4G G19C C23A G40C, the self-cleavage came out at 0.

As to A4G G7C C18G, the self-cleavage was 0.16.

For A4U A11U G19C G27A C37A, the self-cleavage worked out at 0.01.

In the case of A4G C13U C23U G29C G40U C42G U43A, the self-cleavage is 0.09.

For the variant A4G U9C G44C, the self-cleavage worked out at 0.07.

Regarding A4U A6C A16U G17C C31G, the self-cleavage is 0.01.

As to A4G C13A G19A A25G, the self-cleavage is 0.02.

Turning to A4G C13A G27U G36U, the self-cleavage worked out at 0.19.

Regarding A4G C13A C15A A24C, the self-cleavage came to 0.02.

Consider A4G U9C U20A C31A G36C, for which the self-cleavage was 0.

As for A4U A12C U32G, the self-cleavage is 0.

Turning to A4G G22U G33C C42A C46A, the self-cleavage is 0.18.

Turning to A4U A6U C13A U28C, the self-cleavage is 0.03.

Turning to A4U A16U A25G G30C U38A, the self-cleavage amounted to 0.05.

For A4U A11U G21C G29U, the self-cleavage amounted to 0.

For A4U A11C G17U, the self-cleavage is 0.05.

Consider A4G G36A A39G C42U G44A, for which the self-cleavage is 0.06.

Take A4U A16G G33A U38A: the self-cleavage amounted to 0.01.

For the variant A4G U28G G33A G35A, the self-cleavage was 0.11.

For the variant A4G G29U G35U, the self-cleavage was 0.13.

For the variant A4G G7U A11U, the self-cleavage worked out at 0.04.

In the case of A4G C31G G44C, the self-cleavage turned out to be 0.02.

On to A4U A11U A16U C18G C31A A41C G44U, for which the self-cleavage stood at 0.01.

A4U A14G C31G: the self-cleavage was determined as 0.03.

For the variant A4G C13G G17C G22A A41U, the self-cleavage was found to be 0.03.

Regarding A4G U28C C42A, the self-cleavage came out at 0.22.

Consider A4U A6C A24G, for which the self-cleavage was 0.05.

As for A4G C18U A25C G29C G33C, the self-cleavage worked out at 0.03.

On to A4U A11U U20A C23G C31A A41C, for which the self-cleavage was determined as 0.01.

Consider A4G G27U G33A, for which the self-cleavage stood at 0.04.

As to A4G U32G G44C, the self-cleavage amounted to 0.04.

Take A4G U9A G33A: the self-cleavage is 0.14.

Regarding A4G C13U G29U C46G, the self-cleavage amounted to 0.08.

As for A4G C42G C45G, the self-cleavage worked out at 0.02.

Turning to A4G C10U G22A C23U A39C G44U C45A, the self-cleavage was found to be 0.01.

As for A4G C15A U20C A24U G29C C31G G35C G44C, the self-cleavage is 0.01.

In the case of A4G U9C A11U A24C G40A A41U, the self-cleavage turned out to be 0.02.

Take A4U A6U A14U C15U G29A G40C C42A C45A: the self-cleavage came to 0.07.

Turning to A4G G7C G19C A39G C42A, the self-cleavage came out at 0.11.

For the variant A4G U38A C46A, the self-cleavage was found to be 0.09.

As to A4U A6U C10A C15A, the self-cleavage came to 0.01.

With A4G G29C G36C A41C, the self-cleavage was found to be 0.1.

A4U A11U A25C U38C: the self-cleavage was 0.

Consider A4G U9C A25C G30U U34G C42U, for which the self-cleavage is 0.

Consider A4U A11C C18A U20G G33C, for which the self-cleavage amounted to 0.01.

Turning to A4G G5U A24G, the self-cleavage was 0.24.

Take A4U A26G G35U G40A: the self-cleavage was found to be 0.01.

Take A4U A6C C8A U38C G44C: the self-cleavage was 0.06.

In the case of A4G C10U U32C, the self-cleavage turned out to be 0.03.

Take A4U A25G G35U G36A: the self-cleavage was 0.12.

For the variant A4G C15G G22C A26C C46A, the self-cleavage is 0.01.

With A4G G27U U32G, the self-cleavage amounted to 0.1.

Regarding A4G U20A C31U, the self-cleavage is 0.04.

A4G G5A C10A A14U C18G: the self-cleavage stood at 0.02.

As for A4U A12U G19C C42U, the self-cleavage came to 0.02.

With A4G G7A C8G G22U U28G C37G G40C, the self-cleavage came to 0.04.

Regarding A4G G5U A6U C46U, the self-cleavage was determined as 0.05.

As for A4G G21A C37U, the self-cleavage amounted to 0.05.

As for A4G C15G C45A, the self-cleavage came out at 0.01.

Consider A4G C18A G35A, for which the self-cleavage came out at 0.04.

With A4U A11C G40A, the self-cleavage was 0.02.

A4G U20A A25G U34G G36C G44U: the self-cleavage is 0.

A4G U32A G35U C37G: the self-cleavage was determined as 0.16.

With A4G C37A G40C, the self-cleavage came out at 0.21.

For A4G G5A A14C C37A, the self-cleavage came out at 0.06.

Turning to A4G C13U U20A G27U, the self-cleavage came to 0.04.

A4G C13U C15A C18A U28G: the self-cleavage turned out to be 0.02.

For the variant A4G G22U U34A C46A, the self-cleavage was 0.37.

A4U A12C C37A: the self-cleavage came out at 0.01.

For A4U A16U U20G G33C, the self-cleavage was 0.02.

For the variant A4U A6C G21U, the self-cleavage is 0.04.

For the variant A4G U32G C42A, the self-cleavage stood at 0.13.

In the case of A4G C15G G22C A26G G44C, the self-cleavage is 0.01.

With A4U A12G C45U, the self-cleavage was 0.35.

In the case of A4U A12C C13U C15A, the self-cleavage worked out at 0.02.

On to A4U A11U G29A, for which the self-cleavage turned out to be 0.03.

A4G G7C U20C U34A C37U: the self-cleavage is 0.04.

For A4U A26G C46U, the self-cleavage came out at 0.04.

Turning to A4G C23A G27A G30U C45A, the self-cleavage is 0.08.

For A4U A25C G33U U38C, the self-cleavage came out at 0.03.

Consider A4G C13A G19U, for which the self-cleavage amounted to 0.03.

A4G C13U G40A C46A: the self-cleavage was 0.21.

Regarding A4G C18G G35C, the self-cleavage came out at 0.18.

Take A4G C13A G21A G30U A39U: the self-cleavage stood at 0.13.

Take A4G C23A C37G: the self-cleavage came out at 0.04.

With A4U A12G G27U U43G, the self-cleavage amounted to 0.01.

Take A4G C31U C45U: the self-cleavage was 0.03.

With A4G U9C C13U G17U U20C U32G G35A G36U, the self-cleavage came to 0.05.

For the variant A4G U9G G17A, the self-cleavage amounted to 0.15.

With A4U A24G C31G G35C, the self-cleavage was found to be 0.1.

Take A4G G33U C46A: the self-cleavage turned out to be 0.01.

With A4G C18A C37U C42U, the self-cleavage worked out at 0.01.

Consider A4G G7U G27C G36U, for which the self-cleavage came out at 0.11.

On to A4G G7A C10A, for which the self-cleavage was 0.06.

For the variant A4G C42G C46G, the self-cleavage is 0.03.

In the case of A4U A25U G33C C45U, the self-cleavage worked out at 0.03.

On to A4U A24U A25C G36A, for which the self-cleavage was 0.04.

On to A4U A11U G27U G33A C42U C45G, for which the self-cleavage is 0.01.

As to A4G G7C A41U, the self-cleavage was found to be 0.25.

Take A4U A11U C23A: the self-cleavage was determined as 0.04.

Turning to A4G G7A C15A G36U, the self-cleavage came to 0.11.

On to A4G G7U C15A A16U G21C, for which the self-cleavage was found to be 0.03.

Consider A4U A14G C15U, for which the self-cleavage was found to be 0.4.

On to A4G G17A C18A G19U G44U C45A, for which the self-cleavage came out at 0.01.

On to A4G G7U G22A U28G, for which the self-cleavage came to 0.04.

For A4U A14C A39U, the self-cleavage came out at 0.16.

As for A4G U32A C45A, the self-cleavage turned out to be 0.05.

As for A4G G33C U43C C46G, the self-cleavage turned out to be 0.01.

Turning to A4G G19C A26G U28G G36U C42A, the self-cleavage is 0.02.

Turning to A4G C18U G35U, the self-cleavage was found to be 0.08.

Consider A4G C23A G27A C31A G44C, for which the self-cleavage amounted to 0.02.

Regarding A4G U32C G35U, the self-cleavage amounted to 0.11.

With A4G C15A G30A, the self-cleavage came out at 0.08.

As to A4U A11U C31U C46G, the self-cleavage turned out to be 0.01.

Regarding A4G C23A G27C C45G, the self-cleavage was determined as 0.01.

With A4G U9A A24C G29C A39G C45G, the self-cleavage was 0.14.

Consider A4G C45G C46A, for which the self-cleavage is 0.08.

On to A4G C23G G29C G30A, for which the self-cleavage was determined as 0.17.

With A4G U9A G22C G44A, the self-cleavage stood at 0.08.

With A4G G22U C23U U28C U34G G35C G36U C46A, the self-cleavage amounted to 0.01.

For A4G G7C C8U, the self-cleavage came out at 0.13.

Consider A4G U32C U34C A41U, for which the self-cleavage came out at 0.03.

A4U A16C A24U: the self-cleavage was determined as 0.04.

In the case of A4U A12G A24G U34C, the self-cleavage is 0.06.

For A4G G19U G30A, the self-cleavage was determined as 0.69.

For A4G G5C U20A, the self-cleavage worked out at 0.15.

Take A4G G7A A14C G30U U34G: the self-cleavage was 0.15.

On to A4U A14G G19U, for which the self-cleavage was 0.02.

For the variant A4G G17U A41U, the self-cleavage came to 0.07.

Consider A4U A16G G30U G33A, for which the self-cleavage amounted to 0.01.

Consider A4G G27A U34A, for which the self-cleavage was determined as 0.16.

In the case of A4U A11C U32G G36A, the self-cleavage is 0.05.

Take A4U A12U C18A A24C A26G: the self-cleavage is 0.02.

Take A4G G33U G36U C37A: the self-cleavage amounted to 0.02.

For the variant A4G C18U G29C, the self-cleavage turned out to be 0.13.

For A4U A16C C31A G33U U38C, the self-cleavage is 0.03.

Consider A4U A12C G19C G21A C37U, for which the self-cleavage turned out to be 0.

As to A4G G30A G35C G44U, the self-cleavage was 0.07.
